Source: the antibiotic and cytotoxicity screens of Wong et al. (2023)
The list shows a part of the results.

Each molecule was assayed on S. aureus RN4220 (assay: growth inhibition call (relative growth <= 0.2)). Conditions: 50 µM.

Growth inhibition call, inactive:
C[C@H](CO)N1C[C@H](C)[C@H](CN(C)Cc2ccc(Cl)c(Cl)c2)Oc2ccc(NC(=O)Cc3cn(C)c4ccccc34)cc2CC1=O
Cc1cc(=O)n2nc(S(C)(=O)=O)nc2[nH]1
COCC(=O)N1CC[C@]2(CC1)CN(Cc1ccc3c(c1)OCO3)[C@H](CO)c1c2c2ccc(cc2n1C)OC
CCNC(=O)C[C@@H]1CC[C@@H](NC(=O)C2CCOCC2)[C@@H](CO)O1
COc1ccc(CN(C)C[C@@H]2OCCCC[C@@H](C)Oc3ccc(NC(=O)Nc4ccccc4)cc3C(=O)N([C@H](C)CO)C[C@@H]2C)cc1
Cc1cc(C(=O)Nc2cccc3c2O[C@@H](CN(C)Cc2ccc(C(=O)O)cc2)[C@H](C)CN([C@H](C)CO)C3=O)n(C)n1
CCN(CC)CCNC(=O)c1ccc(N)cc1.Cl
COc1ccc(CN(C)C[C@H]2OCCCC[C@@H](C)Oc3ccc(NS(=O)(=O)c4c(C)noc4C)cc3C(=O)N([C@@H](C)CO)C[C@H]2C)cc1
C[C@@H]1CCCCO[C@@H](CN(C)C(=O)CCCN(C)C)[C@H](C)CN([C@@H](C)CO)C(=O)c2cc(N(C)C)ccc2O1
C[C@@H]1CCCCO[C@H](CN(C)C(=O)c2ccccc2)[C@H](C)CN([C@@H](C)CO)C(=O)c2cc(NS(=O)(=O)c3ccccc3)ccc2O1
COc1ccc2c3c(n(c2c1)C)[C@H](CO)N(C[C@]13CN(C1)C(=O)Cc1ccccc1)C(=O)c1ccccn1
CNC(=O)Cn1c(=O)c2c(OC)c(C)cnc2n(C)c1=O
NC(=O)CSc1nnnn1-c1ccccc1
C[C@@H]1CN([C@H](C)CO)C(=O)c2cccc(NC(=O)c3ccncc3)c2O[C@@H]1CN(C)S(=O)(=O)c1ccccc1
C/C(C[P+](c1ccccc1)(c1ccccc1)c1ccccc1)=N\NC(=O)CCCCCCC(=O)Nc1ccccc1O
Cc1ccc(S(=O)(=O)N(C)C[C@H]2Oc3c(NC(=O)c4ccncc4)cccc3C(=O)N([C@@H](C)CO)C[C@@H]2C)cc1
Cc1ccc(S(=O)(=O)Nc2ccc3c(c2)C(=O)N([C@@H](C)CO)C[C@H](C)[C@@H](CN(C)C(=O)Nc2cccc4ccccc24)O3)cc1
COc1ccc([C@@H]([C@H](Cc2ccccc2)OC(C)=O)N2C[C@@H](NC(=O)C(Cl)(Cl)Cl)[C@@H]3[C@H]([C@@H]2Cc2ccccc2)N(C)O[C@H]3c2ccccc2)cc1
CC(O)(P(=O)(O)O)P(=O)(O)O
NCC[C@@H]1CC[C@H](NC(=O)C2CC2)[C@@H](CO)O1
O=C(C1=C[C@@H](c2ccc(Br)cc2)C[C@@H](OCc2ccc(CO)cc2)O1)N1CCCCCCC1
CN(C)CCCNC(=O)C[C@H]1C=C[C@H](NC(=O)Cc2cccnc2)[C@H](CO)O1
C[C@@H]1CN([C@H](C)CO)C(=O)c2cccc(NC(=O)c3nc4ccccc4s3)c2O[C@@H]1CN(C)Cc1ccc(Cl)c(Cl)c1
Cc1noc(C)c1S(=O)(=O)Nc1ccc2c(c1)C(=O)N([C@@H](C)CO)C[C@H](C)[C@H](CN(C)Cc1ccccc1)O2
COc1ccc(NC(=O)N(C)C[C@@H]2Oc3ccc(NC(=O)Cn4cnnn4)cc3C(=O)N([C@H](C)CO)C[C@H]2C)cc1
C[C@@H]1CN([C@H](C)CO)C(=O)Cc2cc(NC(=O)NC3CCCCC3)ccc2O[C@H]1CN(C)C(=O)Nc1cccc2ccccc12
COC(=O)C1=C2CC[C@H](COC(=O)NCCCCCC(=O)NO)NC(=O)N[C@@H](Cc3ccccc3)c3cn(nn3)C[C@@H](Cc3ccccc3)NC(=O)c3oc(c(C(=O)OC)c3C(=O)OC)CC[C@H](COC(=O)NCCCCCC(=O)NO)NC(=O)N[C@@H](Cc3ccccc3)c3cn(nn3)C[C@@H](Cc3ccccc3)NC(=O)C(=C1C(=O)OC)O2
COc1cc(OC)cc(-c2ccc([C@H]3CC(=O)C[C@@H](c4ccccc4)C34C(=O)OC(C)(C)OC4=O)cc2)c1
